# Data: the supplement of paper PMC8728848
# The other results are listed elsewhere or left out.
# Assays:
# Assay in all cases: glycan array binding signal (z-score within array); higher = stronger binding
# Details in all cases: glycan notation: IUPAC condensed, linker removed
# [1] = biological target: Fuc(a1-2)Gal
# Procedure, shortened: (§1)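 Glycan array data were curated from 3228 arrays in the Consortium for Functional Glycomics database and kept only where the protein sequence was available. Glycan names were converted to IUPAC-condensed notation, and columns mapping to the same glycan were averaged. The binding signal is a within-array Z-score, averaged across arrays of the same protein sequence at different concentrations or buffers and across linkers. Negative Z-scores can be read as non-binding.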
# [2] = biological target: Fuc(a1-2)Gal(b1-3)GalNAc
# Procedure, shortened: as §1
# [3] = biological target: Fuc(a1-2)Gal(b1-3)GalNAc(b1-3)Gal
# Procedure, shortened: as §1
# [4] = biological target: Fuc(a1-2)Gal(b1-3)GalNAc(b1-3)Gal(a1-4)Gal(b1-4)Glc
# Procedure, shortened: as §1
# [5] = biological target: Fuc(a1-2)Gal(b1-3)GalNAc(b1-4)[Neu5Ac(a2-3)]Gal(b1-4)Glc
# Procedure, shortened: as §1
# [6] = biological target: Fuc(a1-2)Gal(b1-3)GlcNAc
# Procedure, shortened: as §1
# [7] = biological target: Fuc(a1-2)Gal(b1-3)GlcNAc(b1-3)Gal(b1-4)Glc
# Procedure, shortened: as §1
# [8] = biological target: Fuc(a1-2)Gal(b1-3)[Fuc(a1-4)]GlcNAc
# Procedure, shortened: as §1
# [9] = biological target: Fuc(a1-2)Gal(b1-4)Glc
# Procedure, shortened: as §1
# [10] = biological target: Fuc(a1-2)Gal(b1-4)GlcNAc
# Procedure, shortened: as §1
# [11] = biological target: Fuc(a1-2)Gal(b1-4)GlcNAc(b1-3)Gal(b1-4)GlcNAc
# Procedure, shortened: as §1
# [12] = biological target: Fuc(a1-2)Gal(b1-4)GlcNAc(b1-3)Gal(b1-4)GlcNAc(b1-3)Gal(b1-4)GlcNAc
# Procedure, shortened: as §1
# [13] = biological target: Fuc(a1-2)Gal(b1-4)[Fuc(a1-3)]GlcNAc
# Procedure, shortened: as §1
# [14] = biological target: Fuc(a1-2)Gal(b1-4)[Fuc(a1-3)]GlcNAc(b1-3)Gal(b1-4)[Fuc(a1-3)]GlcNAc
# Procedure, shortened: as §1
# [15] = biological target: Fuc(a1-2)Gal(b1-4)[Fuc(a1-3)]GlcNAc(b1-3)Gal(b1-4)[Fuc(a1-3)]GlcNAc(b1-3)Gal(b1-4)[Fuc(a1-3)]GlcNAc
# Procedure, shortened: as §1
# [16] = biological target: Fuc(a1-2)GlcNAc
# Procedure, shortened: as §1
# [17] = biological target: Fuc(a1-2)[Gal(a1-3)]Gal
# Procedure, shortened: as §1
# [18] = biological target: Fuc(a1-2)[Gal(a1-3)]Gal(b1-3)GlcNAc
# Procedure, shortened: as §1
# [19] = biological target: Fuc(a1-2)[Gal(a1-3)]Gal(b1-4)Glc
# Procedure, shortened: as §1
# [20] = biological target: Fuc(a1-2)[Gal(a1-3)]Gal(b1-4)GlcNAc
# Procedure, shortened: as §1
# [21] = biological target: Fuc(a1-2)[Gal(a1-3)]Gal(b1-4)[Fuc(a1-3)]GlcNAc
# Procedure, shortened: as §1
# [22] = biological target: Fuc(a1-2)[Gal(a1-4)]Gal(b1-4)GlcNAc
# Procedure, shortened: as §1
# [23] = biological target: Fuc(a1-2)[GalNAc(a1-3)]Gal
# Procedure, shortened: as §1
# [24] = biological target: Fuc(a1-2)[GalNAc(a1-3)]Gal(b1-3)GlcNAc
# Procedure, shortened: as §1
# [25] = biological target: Fuc(a1-2)[GalNAc(a1-3)]Gal(b1-4)Glc
# Procedure, shortened: as §1
# [26] = biological target: Fuc(a1-2)[GalNAc(a1-3)]Gal(b1-4)GlcNAc
# Procedure, shortened: as §1
# [27] = biological target: Fuc(a1-2)[GalNAc(a1-3)]Gal(b1-4)[Fuc(a1-3)]GlcNAc
# Procedure, shortened: as §1
# [28] = biological target: Fuc(a1-2)[GalNAc(a1-4)]Gal(b1-4)GlcNAc
# Procedure, shortened: as §1
# [29] = biological target: Fuc(a1-2)[GalNAc(b1-3)]Gal
# Procedure, shortened: as §1
# [30] = biological target: Fuc(a1-3)GlcNAc
# Procedure, shortened: as §1
# [31] = biological target: Fuc(a1-3)[Gal(b1-4)]GlcNAc
# Procedure, shortened: as §1
# [32] = biological target: Fuc(a1-3)[Gal(b1-4)]GlcNAc(b1-4)Gal(b1-4)[Fuc(a1-3)]GlcNAc
# Procedure, shortened: as §1
# [33] = biological target: Fuc(a1-3)[Gal(b1-4)]GlcNAc(b1-4)Gal(b1-4)[Fuc(a1-3)]GlcNAc(b1-4)Gal(b1-4)[Fuc(a1-3)]GlcNAc
# Procedure, shortened: as §1
# [34] = biological target: Fuc(a1-3)[Gal3S(b1-4)]GlcNAc
# Procedure, shortened: as §1
# [35] = biological target: Fuc(a1-3)[GalNAc(b1-4)]GlcNAc
# Procedure, shortened: as §1
# [36] = biological target: Fuc(a1-4)GlcNAc
# Procedure, shortened: as §1
# [37] = biological target: Fuc(b1-3)GlcNAc
# Procedure, shortened: as §1
# [38] = biological target: Gal(a1-2)Gal
# Procedure, shortened: as §1
# [39] = biological target: Gal(a1-3)Gal
# Procedure, shortened: as §1
# [40] = biological target: Gal(a1-3)Gal(b1-3)GlcNAc
# Procedure, shortened: as §1
# [41] = biological target: Gal(a1-3)Gal(b1-4)Glc
# Procedure, shortened: as §1
# [42] = biological target: Gal(a1-3)Gal(b1-4)GlcNAc
# Procedure, shortened: as §1
# [43] = biological target: Gal(a1-3)Gal(b1-4)[Fuc(a1-3)]GlcNAc
# Procedure, shortened: as §1
# [44] = biological target: Gal(a1-3)GalNAc
# Procedure, shortened: as §1
# [45] = biological target: Gal(a1-3)[Gal(a1-4)]Gal(b1-4)GlcNAc
# Procedure, shortened: as §1
# [46] = biological target: Gal(a1-4)Gal(b1-4)Glc
# Procedure, shortened: as §1
# [47] = biological target: Gal(a1-4)Gal(b1-4)GlcNAc
# Procedure, shortened: as §1
# [48] = biological target: Gal(a1-4)GlcNAc
# Procedure, shortened: as §1
# [49] = biological target: Gal(a1-6)Glc
# Procedure, shortened: as §1
# [50] = biological target: Gal(b1-2)Gal
# Procedure, shortened: as §1
# [51] = biological target: Gal(b1-3)Gal
# Procedure, shortened: as §1
# [52] = biological target: Gal(b1-3)GalNAc
# Procedure, shortened: as §1
# [53] = biological target: Gal(b1-3)GalNAc(b1-3)Gal(a1-4)Gal(b1-4)Glc
# Procedure, shortened: as §1
# [54] = biological target: Gal(b1-3)GalNAc(b1-4)Gal(b1-4)Glc
# Procedure, shortened: as §1
# [55] = biological target: Gal(b1-3)GalNAc(b1-4)[Neu5Ac(a2-3)]Gal(b1-4)Glc
# Procedure, shortened: as §1
# [56] = biological target: Gal(b1-3)GlcNAc
# Procedure, shortened: as §1
# [57] = biological target: Gal(b1-3)GlcNAc(b1-3)Gal(b1-4)Glc
# Procedure, shortened: as §1
# [58] = biological target: Gal(b1-3)GlcNAc(b1-3)Gal(b1-4)GlcNAc
# Procedure, shortened: as §1
# [59] = biological target: Gal(b1-3)[Fuc(a1-4)]GlcNAc
# Procedure, shortened: as §1
# [60] = biological target: Gal(b1-3)[Fuc(a1-4)]GlcNAc(b1-3)Gal(b1-4)GlcNAc
# Procedure, shortened: as §1
binder,measurement,setting,value
SIGNR8 (Mus musculus) (protein) MAGEPEFHQSKNHEEEVTSGEQGFAEHDPEGLICSSKSLQGHLTQVPWLLLLLISLGLFLLMLATLVQVSRIRAYSQGQTQDQQGSSSLDKVAVPREQTHSGLEQIQQIQQQLTQFNASLAGLCRPCPWDWELFQGSCYLFSRTLGSWETSASSCEDLGAHLVIVNSVSEQRFMKYWNVRKNQRSWIGLSDHIHEGSWQWVDGSALKFSFWKEGEPNNDGDEDCVELFMDDWNDNKCTEQNFWVCEQPSAPCPHH,glycan array binding signal (z-score),[1],-0.329
same,glycan array binding signal (z-score),[2],-0.368
same,glycan array binding signal (z-score),[3],-0.395
same,glycan array binding signal (z-score),[4],-0.393
same,glycan array binding signal (z-score),[5],-0.379
same,glycan array binding signal (z-score),[6],-0.376
same,glycan array binding signal (z-score),[7],-0.385
same,glycan array binding signal (z-score),[8],-0.296
same,glycan array binding signal (z-score),[9],-0.381
same,glycan array binding signal (z-score),[10],-0.367
same,glycan array binding signal (z-score),[11],-0.392
same,glycan array binding signal (z-score),[12],-0.387
same,glycan array binding signal (z-score),[13],-0.385
same,glycan array binding signal (z-score),[14],-0.372
same,glycan array binding signal (z-score),[15],-0.373
same,glycan array binding signal (z-score),[16],-0.354
same,glycan array binding signal (z-score),[17],2.32
same,glycan array binding signal (z-score),[18],1.41
same,glycan array binding signal (z-score),[19],2.18
same,glycan array binding signal (z-score),[20],2.94
same,glycan array binding signal (z-score),[21],1.38
same,glycan array binding signal (z-score),[22],3.32
same,glycan array binding signal (z-score),[23],-0.391
same,glycan array binding signal (z-score),[24],-0.363
same,glycan array binding signal (z-score),[25],-0.376
same,glycan array binding signal (z-score),[26],-0.386
same,glycan array binding signal (z-score),[27],-0.386
same,glycan array binding signal (z-score),[28],-0.372
same,glycan array binding signal (z-score),[29],-0.36
same,glycan array binding signal (z-score),[30],-0.347
same,glycan array binding signal (z-score),[31],-0.382
same,glycan array binding signal (z-score),[32],-0.385
same,glycan array binding signal (z-score),[33],-0.399
same,glycan array binding signal (z-score),[34],-0.358
same,glycan array binding signal (z-score),[35],-0.369
same,glycan array binding signal (z-score),[36],-0.387
same,glycan array binding signal (z-score),[37],-0.383
same,glycan array binding signal (z-score),[38],-0.384
same,glycan array binding signal (z-score),[39],2.62
same,glycan array binding signal (z-score),[40],2.63
same,glycan array binding signal (z-score),[41],3.07
same,glycan array binding signal (z-score),[42],3.18
same,glycan array binding signal (z-score),[43],2.67
same,glycan array binding signal (z-score),[44],0.051
same,glycan array binding signal (z-score),[45],4.59
same,glycan array binding signal (z-score),[46],1.58
same,glycan array binding signal (z-score),[47],2.59
same,glycan array binding signal (z-score),[48],2.92
same,glycan array binding signal (z-score),[49],0.814
same,glycan array binding signal (z-score),[50],-0.374
same,glycan array binding signal (z-score),[51],4.35
same,glycan array binding signal (z-score),[52],-0.377
same,glycan array binding signal (z-score),[53],-0.382
same,glycan array binding signal (z-score),[54],-0.375
same,glycan array binding signal (z-score),[55],-0.329
same,glycan array binding signal (z-score),[56],-0.36
same,glycan array binding signal (z-score),[57],-0.386
same,glycan array binding signal (z-score),[58],-0.379
same,glycan array binding signal (z-score),[59],-0.366
same,glycan array binding signal (z-score),[60],-0.376
